Results reported in PubChem BioAssay AID1347073 (National Center for Advancing Translational Sciences (NCATS), 2019).
Hit rate of the full screen: of about 45,000 compounds, about 200 (0.44%) were called active. Inconclusive results (about 7%) are left out. The call rests on the fitted dose curve; in most records, active means well fitted activation curve with a large enough effect; inconclusive means small, poorly fitted or top-dose-only effect; inactive means no such curve, though single readings can be large or run the other way. The list shows a part of the results.

Assay: qHTS of TDP-43 Inhibitors: NCGC Sytravon Library Screen; further: nearly all actives have a fitted effect of over 55% in size; on growth rescue (activation): 0% is about no effect
Details: yeast TDP-43 toxicity rescue, BacTiter-Glo growth, 24 h; series mostly up to 46.1 µM; growth rescue (activation): at the top concentration
In short: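 TDP-43-expressing yeast, pregrown in raffinose, seeded at OD600 0.02 in galactose medium with compound for 24 hr at 30 deg C. Growth read by BacTiter-Glo luminescence, so rescue of toxicity appears as activation.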
Potency means the concentration at half of the fitted maximal effect.

SMILES	growth rescue (activation)	Potency
O=S(=O)([O-])CCC[N+]1(CC#Cc2ccccc2)CCCCC1	inactive: -3.46%	
O=C(NC(=S)NN1CCCCC1c1cccnc1)c1ccc(Cl)cc1Cl (stereo unspecified)	inactive: 14.7%	
CCN(CC)S(=O)(=O)c1ccc(C(C)NC(=O)Cc2c[nH]c3ccccc23)cc1 (stereo unspecified)	inactive: 23.9%	
Cc1nc(-c2ccc3c(c2)OCCO3)cs1	inactive: 19.7%	
O=C1CSC(c2ccc([N+](=O)[O-])cc2)N1C1CCCCC1 (stereo unspecified)	inactive: 9.47%	
COc1ccc(C(=O)/C=C/Nc2ccc(S(=O)(=O)Nc3onc(C)c3C)cc2)cc1	inactive: 5.86%	
COC(=O)C(Cc1c[nH]c2ccccc12)NC(=O)c1ccc2nc[nH]c2c1 (stereo unspecified)	inactive: 30.3%	
COc1cc(C(c2oc(CO)cc(=O)c2O)c2oc(CO)cc(=O)c2O)cc(OC)c1OC	inactive: 2.13%	
CCc1nc2c(OCC3CCCCC3)cccn2c1N(C)C(=O)c1ccc(C)cc1	inactive: 0.0066%	
C/C(CCc1ccco1)=N\NC(=O)CNc1c(Br)cc(Br)cc1Br	inactive: 9.86%	
CCCCC(=O)Nc1ccc(NC(=S)NC(=O)c2ccco2)cc1OC	inactive: 21.8%	
Cc1nn(C(C)C(=O)O)c(=O)c2ccccc12 (stereo unspecified)	inactive: -0.853%	
CCc1cc(C(=O)N/N=C/c2ccc(OC)cc2)c2ccccc2n1	inactive: -6.47%	
CCN(C(=O)COC(=O)c1cc(C)n(-c2ccc(F)cc2)c1C)C1CCS(=O)(=O)C1 (stereo unspecified)	inactive: 2.9%	
COc1ccc(O)c(/C=N/NC(=O)c2ccc(N3CCCC3=O)cc2)c1	inactive: -16.7%	
O=C(O)CN(C1CCCCC1)S(=O)(=O)c1ccc(F)cc1	inactive: -7.01%	
CC1CCC/C(=C\Nc2ccc(C(=O)O)c(O)c2)C1=O (stereo unspecified)	inactive: 15.9%	
C=CCOc1ccc(/C=N/NC(=O)CN2CCOCC2)cc1OCC	inactive: 0.405%	
Cc1cc(C(F)(F)F)nc(SCC(=O)Nc2c(C)n(C)n(-c3ccccc3)c2=O)n1	inactive: 6.48%	
CCN(CC)CCN(Cc1cc2cc(C)ccc2[nH]c1=O)C(=S)Nc1ccccc1	inactive: 2.94%	
CC1=CN2C(=N)/C(=C/c3ccc(Sc4ccc(C)cc4)o3)C(=O)N=C2S1	inactive: 5.06%	
COc1cc(C(=O)O)cc(NC(=O)c2ccco2)c1OC	inactive: 12.8%	

SMILES	growth rescue (activation)	Potency
CCc1ccc(OCCCC(=O)Nc2cccc(C(=O)O)c2)cc1	inactive: -4.47%	
O=C(NCCCO)c1cc([N+](=O)[O-])cc2c1C=Cc1ccccc1O2	inactive: 7.05%	
CCN(CC)S(=O)(=O)c1ccc(N=Nc2c(N)[nH]c(=O)[nH]c2=O)cc1	inactive: 10.4%	
CCOC(=O)c1c(NC(=O)c2cnn3c2NC(c2cccc(OC)c2)CC3C(F)(F)F)sc2c1CCCC2 (stereo unspecified)	inactive: 10.6%	
CCCCN(C)C1CCN(C(=S)Nc2cccc(SC)c2)CC1	inactive: 3.64%	
O=C(NC(Cc1ccccc1)C(=O)O)/C(=C/c1ccc([N+](=O)[O-])cc1)NC(=O)c1ccco1 (stereo unspecified)	inactive: 17.5%	
Cc1ccc(S(=O)(=O)n2nc(OC(=O)c3ccccc3C)cc2N)cc1	inactive: 22.7%	
Cc1n[nH]c(=O)nc1N/N=C/c1cccs1	inactive: -0.071%	
O=C(CSc1nc2ncc(Br)cc2[nH]1)c1cccc([N+](=O)[O-])c1	inactive: 16.6%	
COc1cc2c(cc1OC)C(COc1ccccc1OC)N(C(=O)C(C)(C)C)CC2 (stereo unspecified)	inactive: -10.6%	
Nc1nc2ccccc2n1CCOc1ccccc1Cl	inactive: 8.55%	
Cc1ccc(C(=O)CNc2cccc(Cl)c2)cc1	inactive: 10%	
NC(=O)c1ccc(N2CCCCCC2)c([N+](=O)[O-])c1	inactive: 20.7%	
COc1ccc(CCNc2ncnc3[nH]ncc23)cc1OC	inactive: 22.4%	
O=C1CC(/C=C/c2cccnc2)=Nc2ccccc2N1	inactive: 3.11%	
Cc1nonc1OCCN1CCN(c2ccc([N+](=O)[O-])cc2)CC1	inactive: 0.309%	
NC(=O)c1ccc(NC(=O)COC(=O)c2ccccc2Nc2ccccc2)cc1	inactive: 4.8%	
COc1cc(S(=O)(=O)N2CCCC2)c(C)cc1C	inactive: 6.44%	
O=c1c2cc(F)ccc2[nH]c(=S)n1Cc1ccc(F)cc1	inactive: 9.81%	
CCn1c(O)c(/C=C/C=C/C=Nc2ccccc2)sc1=S	inactive: -20.9%	
OC(c1ccc(F)cc1)c1nc(-c2csc3ccccc23)cs1 (stereo unspecified)	inactive: -34.8%	
CC(=O)Nc1ccc(S(=O)(=O)NC2(C(F)(F)F)C(=O)Nc3c2c(=O)[nH]c(=O)n3Cc2ccco2)cc1 (stereo unspecified)	inactive: -0.286%	

SMILES	growth rescue (activation)	Potency
CCOc1ccc(-n2c(=O)c3sccc3n(CC(=O)NC3CCCCC3)c2=O)cc1	inactive: -13.6%	
O=C1CN(C(=O)COC(=O)c2cc(S(=O)(=O)N3CCOCC3)ccc2Cl)c2ccccc2N1	inactive: -16.4%	
Fc1ccccc1N1CCN(c2ncnc3nc[nH]c23)CC1	inactive: 1.82%	
Cc1nc(Nc2ccc(C(=O)O)cc2)sc1-c1ccccc1	inactive: -1.26%	
O=C(Cc1c(F)cccc1Cl)NNC(=O)c1ccco1	inactive: -13.7%	
CCN(CC(=O)NC(C)(C)C)C(=O)CN1c2cccc3cccc(c23)S1(=O)=O	inactive: -11.1%	
O=C(COC(=O)c1ccc2c(c1)OCO2)NC1CCS(=O)(=O)C1 (stereo unspecified)	inactive: 7.3%	
COc1ccc(N2CCN(c3cncc(C)n3)CC2)cc1	inactive: 15.4%	
COc1ccc(C2C3=C(CC(C)(C)CC3=O)Oc3ncn4nc(-c5ccccc5)nc4c32)cc1 (stereo unspecified)	inactive: -21.9%	
CC(C)(CSc1nncn1/N=C/c1ccco1)NS(=O)(=O)c1ccc(Cl)cc1	inactive: -6.51%	
Cc1ccc(S(=O)(=O)/N=C(\N)c2ccc(Cl)cc2)cc1	inactive: 18%	
CC(=N\NC(=O)c1ccc([N+](=O)[O-])cc1)/C(=N/O)C(=O)Nc1ccccc1	inactive: 14.9%	
CC(=O)Nc1ccc(Nc2ccc(N3C(=O)CCCC3=O)cc2[N+](=O)[O-])cc1	inactive: 12.4%	
CC(=O)Nc1nnc(SCc2ccc(C(=O)Nc3ccccc3F)cc2)s1	inactive: 7.07%	
COc1cccc(NC(=O)C2C3C=CC(O3)C2C(=O)O)c1 (stereo unspecified)	inactive: -2.09%	
COc1cc(CCC(=O)OCC(=O)Nc2ccccc2F)cc(OC)c1OC	inactive: 6.53%	
COc1ccc(C(=O)NCCSc2ccccc2)cc1	inactive: 3.63%	
O=C(NC(=S)NCC1CCCO1)c1ccccc1 (stereo unspecified)	inactive: -14.1%	
COc1ccc(/C(O)=C/c2nc3ccccc3n(-c3ccccc3)c2=O)cc1	inactive: -1.49%	
O=C(O)C(Cc1c[nH]c2ccccc12)N1Cc2ccccc2C1=O (stereo unspecified)	inactive: -8.01%	
COc1cc(/C=C2\SC(=Nc3ccc(Cl)c(C(=O)O)c3)NC2=O)c(Br)c(Br)c1O	inactive: 3.47%	
c1ccc2c(c1)CNC1(CCCCC1)C2	inactive: 14%	

SMILES	growth rescue (activation)	Potency
COc1ccc2[nH]c(C(=O)N3CCN(Cc4ccccc4)CC3)cc2c1OC	inactive: 6.76%	
C=CC(=O)NC(NC(=O)C=C)c1ccccc1F	inactive: 22.2%	
CN(Cc1cccc(Cl)c1Cl)c1ccc(S(=O)(=O)N2CCCCC2)cc1[N+](=O)[O-]	inactive: -0.618%	
O=[N+]([O-])c1ccc(N2CCN(c3ccc(O)cc3)CC2)c(Cl)c1		active: 12.6 µM
Cc1cccc(C(=O)N2CCc3cc(-c4nc(NC(=O)CN5CCCC5)sc4C)ccc32)c1	inactive: 12.9%	
Cc1nnc(SCC(=O)NC2CCCCC2)[nH]c1=O	inactive: 11.7%	
O=C(CC1OCC2CCCN2C1=O)Nc1ccc([N+](=O)[O-])cc1 (stereo unspecified)	inactive: -45%	
CCc1cccc(NC(=O)Cn2cc(C(=O)c3ccncc3)c(=O)c3cc(C)c(C)cc32)c1	inactive: 11.2%	
CC(=O)c1ccc(C)cc1OC(=O)c1cccc(F)c1	inactive: 23.8%	
CC(NC(=O)CSc1ncccn1)c1ccc(Cl)cc1Cl (stereo unspecified)	inactive: 11.5%	
C=CCn1c(SCC(=O)Nc2ncc(Cc3cc(Cl)ccc3Cl)s2)nnc1-c1ccncc1	inactive: -1.32%	
CCOC(=O)c1cc2c(ccn2C)n1CC(=O)N(CC)CC	inactive: -3.81%	
O=C(NCc1ccccc1)C1CCN(C(=O)c2cnn(-c3ccccc3)c2-n2cccc2)CC1	inactive: 4.31%	
O=C(CSc1nnc(C2COc3ccccc3O2)o1)Nc1ccc(F)cc1Cl (stereo unspecified)	inactive: 15.8%	
Cn1c(=O)n(Cc2ccccc2)c(=O)c2c1nc1n2CCCN1C1CCCCC1	inactive: -14.2%	
CCNC(=S)N1CCC(c2nc3cc(C)c(C)cc3[nH]2)CC1	inactive: -0.245%	
O=C(CSc1nnc(C2CC2)n1C1CC1)c1ccc(Br)s1	inactive: 37%	
O=C(CS(=O)CC(=O)Nc1cnc2ccccc2c1)Nc1ccc(Cl)cc1 (stereo unspecified)	inactive: 4.87%	
Cc1c(N2C(=O)/C(=C\c3ccc(N(C)C)cc3)N(C)C2=S)c(=O)n(-c2ccccc2)n1C	inactive: -1.6%	
C=CCn1c(O)c(N=Nc2ccccc2)c2ccccc21	inactive: -7.32%	
O=C(CSc1nnc2ccccn12)NC(=O)NC1CCCCC1	inactive: 8.69%	
COc1ccc(NC(=O)COC(=O)[C@@H]2CCCN2S(=O)(=O)c2ccccc2F)c(OC)c1	inactive: 16.3%	

SMILES	growth rescue (activation)	Potency
Cc1ccc(CNC(=O)C2CCCN(c3nnc(-n4c(C)ccc4C)s3)C2)cc1 (stereo unspecified)	inactive: 0.134%	
CCS(=O)(=O)c1ccccc1C(=O)NC1CCCc2ccccc21 (stereo unspecified)	inactive: 4.95%	
Cc1nn(C)c(Cl)c1CN1CCN(CC(C)C)C(CCO)C1 (stereo unspecified)	inactive: -3.14%	
CCSc1nnc(NC(=O)CSc2sc3c(O)cc(=O)[nH]c3c2C#N)s1	inactive: -1.22%	
CCN(Cc1ccccc1)C(=O)CCc1nnc(CCCc2ccccc2)o1	inactive: 20.2%	
O=C(CCn1c2c(c3ccccc31)CCCC2)NNC(=O)c1ccc(Cl)c([N+](=O)[O-])c1	inactive: 9.27%	
O=C(c1cn(-c2ccccc2)nc1-c1cc2ccccc2oc1=O)N1CCOCC1	inactive: 15.3%	
S=c1nc(C2CCCCC2)[nH]c2ccccc12	inactive: 34.8%	
Cc1ccc(N(C(=O)CCCC(=O)Nc2ccccn2)C(C(=O)NC2CCCC2)c2ccc(O)cc2)cc1C (stereo unspecified)	inactive: -2.49%	
CC(C)(C)NC(=O)NC(=O)CN1CCN(S(=O)(=O)c2ccccc2)CC1	inactive: 5.14%	
O=C(CNC(c1ccccc1)c1ccccc1)Nc1ccccc1F	inactive: -14.3%	
COc1cccc(C(=O)/C=C/Nc2ccc(S(=O)(=O)Nc3cnc4ccccc4n3)cc2)c1	inactive: -7.94%	
COc1ccc(CC2S/C(=N/N=C/c3ccc(O)cc3)NC2=O)cc1 (stereo unspecified)	inactive: -5.75%	
O=c1c2[nH]c3ccc(F)cc3c2nc2n1CCCS2	inactive: 12.8%	
CCOc1ccc(-c2nc(CN(Cc3ccccc3)C[C@@H]3CCC(=O)N3)c(C)o2)cc1	inactive: 0.472%	
O=C(NCCc1ccc(Cl)cc1Cl)c1cc([N+](=O)[O-])c[nH]c1=O	inactive: -5.72%	
Cc1ccc(N=C2NC(=O)/C(=C/C=C/c3ccco3)S2)cc1C	inactive: -8.67%	
Cc1cc(C(=O)OCC(=O)NCc2ccc3c(c2)OCO3)c2ccccc2n1	inactive: 4.43%	
